Experimental data as given in PubChem BioAssay AID651820 (National Center for Advancing Translational Sciences (NCATS), 2012).
Among all 340,000 compounds or so, about 12,000 (3.5%) were called active. Inconclusive results, whose numbers are uncertain, are shown with a selection of clear calls. Calls come from the whole dose curve; as a rule, active = well fitted inhibition curve with a large enough effect; inconclusive = small, poorly fitted or top-dose-only effect, or another doubt; inactive = no such curve, though single readings can be large or run the other way. Potencies of inconclusive entries are left out as doubtful fits.

Experiment: qHTS Assay for Inhibitors of Hepatitis C Virus (HCV)
Details: Huh7.5.1 HCVcc-Cre (HCVcc is cell-culture hepatitis C virus) infection, luciferase reporter, 44 h; activity change, negative = inhibition: at 41.8 µM (top of the series)
Procedure, shortened: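 Compounds are dispensed onto cells plated 4 h earlier at 1,000 per well, with HCVcc-Cre virus (about 0.5 moi) added next. Following 44 h of culture, luminescent signal is measured for 15 sec after 15 min with substrate at room temperature.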
% is set by controls: 0 for no effect and ±100 for the full control effect; potency is the fitted concentration of half-maximal effect; tags give direction and shape of the fitted curve.

| SMILES | Potency | activity change, negative = inhibition |
| --- | --- | --- |
| COc1cccc2c1C(=O)c1c(O)c3c(c(O)c1C2=O)CC(O)(C(C)=NNC(=O)c1ccc(Cl)c(Cl)c1)CC3OC1CC(N)C(O)C(C)O1 (configuration not stated) | inconclusive [inhibitor, full curve] | – |
| O=C(CN1CCCC1)Nc1ccc(NC(=O)Nc2ccccc2Cl)cc1 | inconclusive [inhibitor, single point] | – |
| CC(C)(C)c1ccc(C(=O)NC2CCS(=O)(=O)C2)cc1 (configuration not stated) | – | inactive: 1.09% |
| Cc1ccccc1OCCn1cc(/C=C(\C#N)C(=O)NCc2ccco2)c2ccccc21 | – | inactive: -10.8% |
| O=C(Nc1cccc(S(=O)(=O)N2CCCCCC2)c1)c1cncc(Br)c1 | active: 11.2 µM | – |
| COC(=O)C1CCN(Cc2ccc(C)cc2)CC1 | inconclusive [inhibitor, single point] | – |
| CC(=O)N1c2ccc(S(=O)(=O)NCC3CCC(C(=O)N4CCC(C)CC4)CC3)cc2CC1C (configuration not stated) | – | inactive: -10.9% |
| CCOC(=O)Cc1csc(NC(=O)CSc2nnc(-c3ccncc3)o2)n1 | inconclusive [inhibitor, single point] | – |
| COc1ccccc1CNC(=O)c1ccc(OCc2c(C)noc2C)c(OC)c1 | inconclusive [inhibitor, single point] | – |
| Clc1ccc(COn2c(-c3ccc(Cl)cc3)nc3ccccc32)cc1 | inconclusive [inhibitor, partial curve, poor fit] | – |
| COc1ccc(NC(=O)c2cc(-c3ccco3)on2)cc1OC | active: 11.2 µM | – |
| CSc1cc(-c2ccc(Cl)cc2)c(C(=O)NC(C)C)s1 | – | inactive: -23.6% |
| CCCCCCCN1C(N(C)C)=NC[C@@H]1Cc1ccccc1 | inconclusive [inhibitor, single point] | – |
| O=C(CSc1nc(C2CC2)nc2ccccc12)Nc1ccccc1 | inconclusive [inhibitor, full curve, poor fit] | – |
| CCOc1ccc(-n2ccc(=O)c(C(=O)Nc3ccc(S(=O)(=O)N4CCOCC4)cc3)n2)cc1 | – | inactive: 9.7% |
| S=C(NCCCc1ccccc1)NC1CCCCC1 | inconclusive [inhibitor, single point] | – |
| O=C(COc1ccccc1Cl)Nc1ccc(S(=O)(=O)Nc2ccccn2)cc1 | – | inactive: -1.73% |
| Cc1ccc(S(=O)(=O)N2CCC(C(=O)OC(C)C(=O)NCc3ccccc3)CC2)cc1C (configuration not stated) | – | inactive: 17.1% |
| COc1cc(C2Nc3cc(Cl)c(S(N)(=O)=O)cc3S(=O)(=O)N2)cc(OC)c1OC (configuration not stated) | inconclusive [inhibitor, single point] | – |
| COc1cc2nc(CN3CCN(S(=O)(=O)c4ccc(Cl)cc4)CC3)[nH]c(=O)c2cc1OC | inconclusive [inhibitor, single point] | – |
| COc1ccc(CN(CC(=O)NCc2ccc(F)cc2)C(=O)c2csnn2)cc1 | – | inactive: -8.65% |
| O=C(c1ccc(Cl)c(S(=O)(=O)N2CCCCC2)c1)N1CCCC1 | – | inactive: 10.4% |
| Cc1cccc(OCc2nnc(SCc3cc(=O)[nH]c4ccccc34)n2-c2ccccc2)c1 | – | inactive: -12.6% |
| COc1ccc(OCC(=O)N2CCN(C(=O)Cc3ccccc3)CC2)cc1 | inconclusive [inhibitor, partial curve, poor fit] | – |

| SMILES | Potency | activity change, negative = inhibition |
| --- | --- | --- |
| CSCC(=O)N1CCC(CCC(=O)NC2CC2)CC1 | inconclusive [inhibitor, single point] | – |
| COc1ccc(C(=O)CSc2nc(C(C)(C)C)nc3ccccc23)cc1 | active: 3.98 µM | – |
| O=C(Nc1cc(Sc2ccccn2)cc([N+](=O)[O-])c1)c1ccc(Cl)cc1 | active: 10 µM | – |
| Cc1cc(N/C=C(\C#N)S(=O)(=O)c2ccccc2Cl)nc(C)n1 | – | inactive: 13.3% |
| CC1CCN(S(=O)(=O)c2ccc(NC(=O)CN3CCN(C)CC3)cc2)CC1 | inconclusive [inhibitor, single point] | – |
| COc1ccc(-c2n[nH]c(C)c2-c2cscn2)c(O)c1 | – | inactive: -14.5% |
| CN1/C(=C\C(=S)NC(=O)c2ccc([N+](=O)[O-])cc2)C(C)(C)c2ccccc21 | inconclusive [inhibitor, single point] | – |
| Cc1ccc(S(=O)(=O)NCC(=O)OCc2csc(CC(=O)Nc3ccccc3C)n2)cc1C | – | inactive: 13% |
| CCN(CC)C1CC(=O)N(c2cccc(C)c2)C1=O (configuration not stated) | – | inactive: -3.11% |
| Fc1ccc(CSc2nncn2NCc2ccc3c(c2)OCO3)cc1 | – | inactive: -1.59% |
| CN(C)S(=O)(=O)c1ccc(C(=O)NCCOc2ccc(F)cc2)cc1 | inconclusive [inhibitor, single point] | – |
| CCOc1ccc(NC2=C(Cl)C(=O)N(C3CCCCC3)C2=O)cc1 | – | inactive: -1.95% |
| COc1cccc(NC(=O)CSc2nnc(-c3ccco3)c(-c3ccco3)n2)c1 | inconclusive [inhibitor, partial curve] | – |
| CCN(C[C@H]1N[C@@](Cc2ccccc2)(C(=O)OC)[C@H]2C(=O)N(C)C(=O)[C@@H]12)S(=O)(=O)c1ccccc1 | – | inactive: 47.3% |
| CCC(c1nnnn1Cc1cccs1)N1CCN(C2CCCC2)CC1 (configuration not stated) | inconclusive [inhibitor, full curve, poor fit] | – |
| Cc1cc(OCCN2CCCCC2)nc2ccccc12 | inconclusive [inhibitor, partial curve] | – |
| COc1ccc2nc(-c3ccccc3)cc(C(=O)OCC(=O)N3CC(C)OC(C)C3)c2c1 (configuration not stated) | inconclusive [inhibitor, single point] | – |
| CN(C(=O)c1cccc(NC(=O)Cc2ccc([N+](=O)[O-])cc2)c1)C1CCC1 | active: 3.16 µM | – |
| CC[n+]1cc(C)ccc1/C=C/c1ccc(N(C)C)cc1 | active: 5.62 µM | – |
| CSc1ccccc1NC(=O)c1csc(C)c1 | – | inactive: -12.3% |
| COc1cc(C(=O)NCC(=O)N2CC=C(c3ccccc3)CC2)cc(OC)c1OC | inconclusive [inhibitor, partial curve] | – |
| COc1cc(C(=O)NNC(=O)/C=C/c2ccco2)cc(OC)c1OC | inconclusive [inhibitor, single point] | – |
| Cc1ccc(Cn2c(NCCc3ccccc3)nc3c2c(=O)n(C)c(=O)n3C)cc1 | active: 3.98 µM | – |
